# Laboratory results published in article PMC12136788.
# Some of the results follow.
# B1: chr1:54043363:54043464:-|CDS|ENSG00000116209|msi1|total|mutant (ssRNA)
# RNA: GGGAGUUCUACAGUCCGACGAUCCGCACAGAGCUUCAUAACCUCUUCAUGGACUUUUUAUCUUCAAGCCGAUGACGGAAAAACCGUUAUAUUCCAGGUGACAACUGAGCUUCAUGGAUUCAUCUAAAUACUAACAACAGUAAACAACAGAGGAUUGAGCAUCA
# B2: ENSG00000181610:stop:overlap|stop_codon|ENSG00000181610|stop_codon|NA|stop_codon (ssRNA)
# RNA: GGGAGUUCUACAGUCCGACGAUCGACGAGUAGGCGAAGCAAGGACUGUGAGUAUUUCAUUGUUAAAAUUGUUACUGGGUUUAUAGUUGUCCCUCAGUAUGCACAGGGGAUUGGUGCUAGGGCCCCUGCAGAUACCAAUAUUCACAACAGAGGAUUGAGCAUCA
# B3: chr3:100728682:100728848:+|CDS|ENSG00000114354|unk|total|mutant (ssRNA)
# RNA: GGGAGUUCUACAGUCCGACGAUCUAAUGGCCAGCCAAGACCCCUUGAAUCAAGUCAGGUGAAAUAUCUCCGUCGAGAACUGACCGAACUUCGAAAUAAAGUGAAUCGUUUAUUGGACCGCUUGGAACCACCUGGAGAACCAGGCAACAGAGGAUUGAGCAUCA
# B4: chr2:48379045:48379146:+|3pUTR|ENSG00000170802|unk|FALSE|unique (ssRNA)
# RNA: GGGAGUUCUACAGUCCGACGAUCCCUUAUCCUCUUUUCUGAUGUAGCAUAAAAAUUGUCCCGGUUUGAGUUAUAACUGCCAGUAGAUGACCAGUCACAAGUGAACCACUUCUCAGUUGCCAAUCUUUGCUCAUAUUAAAAACACAACAGAGGAUUGAGCAUCA
# B5: chr1:17067933:17068034:-|3pUTR|ENSG00000117115|msi1|total|mutant (ssRNA)
# RNA: GGGAGUUCUACAGUCCGACGAUCACAUAAGGACCCUGGCCUACCCUCCAGCCCAACAGCCAGUUCUGGGUCAGCUGCCAACUCCGGGGUGGUUUGAUUAUCCCAUUGAAAUUCACCAGUGCCUUUGCCAAAGACCCUCUCAUUCAACAGAGGAUUGAGCAUCA
# B6: chr12:50222030:50222167:-|CDS|ENSG00000050405|unk|total|mutant (ssRNA)
# RNA: GGGAGUUCUACAGUCCGACGAUCAUCCAGGCAUGAAGCCGAAAAAUCAGAAAUCAGUGAAAACACAGAUGCUUCGGGCAAAACCGAGAAAUAUAAUGUUCCGCUGAACAGGCUUAAGAUGAUGUUUGAGAAAGGUGAACCAACCAACAGAGGAUUGAGCAUCA
# B7: chr14:55048714:55048815:+|3pUTR|ENSG00000180008|msi1|total|mutant (ssRNA)
# RNA: GGGAGUUCUACAGUCCGACGAUCUUUCUAAUUUUGAACAGAUGACUCAGUCCUAAAUCUUUGCCUUUAUUUCCUAUAAAAUGCCGGUGAUACUUGUAACUCGACUUCCUGGAGUUAAUUCUUCAGCAAGAGGUGACCCUGGGACAACAGAGGAUUGAGCAUCA
# B8: chr1:178442813:178442920:+|CDS|ENSG00000075391|unk|total|mutant (ssRNA)
# RNA: GGGAGUUCUACAGUCCGACGAUCAAAGCAGACAAUAUUUUCUGGGGCGAACAUUUUGAAUUCUUCAGCCUUCCACCUCUUCACCGUAUCACAGUUCACAUUUACAAGGAUGUGGAAAAAAAGAAAAAAAAGGACAAGAAUAAUCAACAGAGGAUUGAGCAUCA
# B9: chr1:193014253:193014354:-|3pUTR|ENSG00000116750|unk|FALSE|unique (ssRNA)
# RNA: GGGAGUUCUACAGUCCGACGAUCUUAAUAGGUAUAAGGAUUUUUCUUAUUAAUCUAAUAAAAUUCCUUAAUAGGAAUUUCCAUAGCUUAAGAGUGGUUUAUUUUAUCUGCAUCUUCUUUGGUGAUUGCAAAUCCCUUGUGAUACAACAGAGGAUUGAGCAUCA
# B10: chr1:93365539:93365640:+|3pUTR|ENSG00000117505|unk|total|mutant (ssRNA)
# RNA: GGGAGUUCUACAGUCCGACGAUCAGGAGGCAAAAUUGCACCCUGUUGAAAACCACCACCUCCGAUCAUCCCGGUUUUACUUUCCGGAUAAGACACUUGAGGGAAAGGCUGUGAAACUGAACCUCUGUCCGAAGCAACACACAGCAACAGAGGAUUGAGCAUCA
# B11: chr3:58171454:58171555:+|3pUTR|ENSG00000136068|msi1|total|mutant (ssRNA)
# RNA: GGGAGUUCUACAGUCCGACGAUCGGUGAUUAUUUCUUGCAGAAUCACCACACGAGACCAUCCCGGCAGUCAUGGUUUUGCUUCCGUUUUCCAAGUCCGUUUCAGUCCCUUCCUUGGUCUGAAGAAAUUCUGCAGUGGCGAGCACAACAGAGGAUUGAGCAUCA
# B12: chr17:81922623:81922724:-|CDS|ENSG00000197063|msi1|total|mutant (ssRNA)
# RNA: GGGAGUUCUACAGUCCGACGAUCUGCCGCCGGCCUGGGGCCCCUCGUCCCAGGCAAGGUGGCCGCCACCAGCGUCAUCACAACCGUAAAGUCCAAGACGGAUGCCCGAUCGCCGGGACGCGCGUCUGCCCAGGCGGGUCUUUGCAACAGAGGAUUGAGCAUCA
# B13: ENSG00000198589:be:win_2901|CDS|ENSG00000198589|bound_else_gene|NA|bound_elsewhere_windowed (ssRNA)
# RNA: GGGAGUUCUACAGUCCGACGAUCUUCAGUAGGAUCCCAGCAACCAGAUACGAAGGAUUCUCCUGUCUGUCCUCAUUUCACCACAAAUGGUAAUGAAAAUUCAAGUAUAGAGAAGACAAGUUCACUAGAAUCUGCAUCUAAUAUCAACAGAGGAUUGAGCAUCA
# B14: chr22:36281679:36281692:-|3pUTR|ENSG00000100345|msi1_unk|FALSE|overlapping (ssRNA)
# RNA: GGGAGUUCUACAGUCCGACGAUCUCUUGUGUCUACUCUAGGACUGGGCCCGAGGGUGGUUUACCUGCACCGUUGACUCAGUAUAGUUUAAAAAUCUGCCACCUGCACAGGUAUUUUUGAAAGCAAAAUAAGGUUUUCUUUUUUCAACAGAGGAUUGAGCAUCA
# Molecular target: MSI1 full-length (mouse, UniProt Q61474 1-362)
# UniProt Q61474, sequence (Q61474 whole entry): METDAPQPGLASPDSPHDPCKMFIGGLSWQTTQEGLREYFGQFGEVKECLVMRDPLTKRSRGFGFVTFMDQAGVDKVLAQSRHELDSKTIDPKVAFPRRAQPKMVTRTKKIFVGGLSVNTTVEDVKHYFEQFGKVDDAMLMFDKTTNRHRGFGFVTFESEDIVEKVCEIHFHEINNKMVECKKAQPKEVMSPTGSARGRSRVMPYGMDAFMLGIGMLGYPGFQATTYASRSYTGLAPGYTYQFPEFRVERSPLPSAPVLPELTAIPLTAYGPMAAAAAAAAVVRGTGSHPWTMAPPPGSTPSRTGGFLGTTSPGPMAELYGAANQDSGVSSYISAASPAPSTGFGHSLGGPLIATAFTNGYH
# Assay: nsRBNS (natural sequence RNA bind-n-seq); RBNS binding buffer (assumed for nsRBNS): 25 mM Tris pH 7.5, 150 mM KCl, 3 mM MgCl2, 0.01% Triton X-100, 500 ug/ml BSA, 20 U/ml SUPERase-In, 4 C; UNK is unkempt and MSI1 is Musashi-1; names of the RNAs are library labels; protein concentration not given here; high values mean tight binding
row,Binder,binding signal [enrichment R]
1,B1,0.255
2,B2,1.99
3,B3,0.264
4,B4,0.775
5,B5,0.449
6,B6,0.258
7,B7,0.287
8,B8,0.485
9,B9,1.06
10,B10,0.34
11,B11,0.392
12,B12,0.351
13,B13,0.338
14,B14,1.92
